In the supplement of paper PMC11417369:
Some of the results follow.

These sequences were tested on PfAP2-HC AP2 domain (GST-tagged) (assay: gcPBM binding intensity (ln(normalized median fluorescence intensity)); higher = stronger DNA binding).
Procedure, shortened: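 Binding intensity values are the highest Masliner-normalised natural-log median intensity among replicate spots of either probe orientation. The binding step lasted 1 h in 1× PBS with 1% milk, 0.2 mg/ml BSA, 0.5% salmon testes DNA and 0.03% Triton X-100, using GST-tagged P. falciparum DNA-binding domains expressed in E. coli on an Agilent 4 × 180k array of primer-extended double-stranded 36-bp intergenic genomic probes plus negative controls. Alexa488 anti-GST antibody and a 488 nm scan detected bound protein.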

Sequence	gcPBM binding intensity (ln)
TTATATTAATATTATATTTAAAAATAAAATATAAAT [TGCATGCA_negctrl_site79]	8.91
TATTTATATATTTGTTGTACGTATTTATATATTCTT [XGTACX_site3622]	9.9
ATTAATTTGATTTTAATAAGAATATTTGTGGGGAAT [GTGCAC_negctrl_site198]	9.38
TTTTATTTTTGTTGGTCCCTCATTTAAGTTAATAAA [TGCATGCA_negctrl_site465]	9.57
ATATTGATTTGTGGCACACATATAATATATTCCTAT [CACACA_site3046]	9.82
TTTTCAATATATATATGCTGAATTTATAATTTGTAT [CACACA_negctrl_site1774]	9.67
TGAATAATAAAAAATACACACACATATATATATATT [CACACA_site9146]	10.1
ACCATATAAAGTTAGGTGCATTTGTATGTATCTTAC	9.65
TCTTGTTCGCCCTATTGTACAAACATATATTGTGAT [XGTACX_site2884]	9.78
TTATTTTGATCTGGTTGTACATATAATATATAGTGG [XGTACX_site357]	9.58
AAAAGAGAAATGGGCACACACACACCCATTATATAT [CACACA_site1530]	10.2
ATATATACATACATATGTACATATGTAGATATATTT [XGTACX_site1230]	9.76
ATTTTTTTTGTTTATTCTTATGTGGTTATTAAATTA [CACACA_negctrl_site1000]	9.73
TATTTGTTTAAATTCACACACGTATATATATTTATA [CACACA_site5651]	9.9
ATTATGAAATATCGTGCACACACGAATAATATAAGA [CACACA_site1294]	9.87
TACGTTTTAAAACACACACACAAAAAAAAAAAAAAA [CACACA_site3876]	9.78
ATGTACCTTCAAACTACACACAAATGAAGGAACACA [CACACA_site3330]	9.82
ATCTAATAAAAATACACACACATATGGTTTGTGAAT [CACACA_site6962]	10.1
AAATATTACATACACGCACACATTAAAATATTTAAA [CACACA_site5440]	10.1

Sequence	gcPBM binding intensity (ln)
TGTAGTCTGGAGAAGAGTACACAGTATCTGGTAGCT [XGTACX_site2036]	9.72
TTAAAAAATCACAACACACACACACGCAAAAAAAAA [CACACA_site6793]	10.8
AAAAATAACATATAAACACACATATAGATTTATATA [CACACA_site7738]	9.83
ATATAGAATGTTTACACACGCAATAAATATATATAT [CACACA_site217]	9.85
GCGTATCATTTTAAAACACACAGGATTTTATAAGTA [CACACA_site1225]	9.68
ATGGTATAAAAAAATACACACTTATTTATATTCTTA [CACACA_site6370]	9.65
AATTTTTAGAAGAACACACACATATATATTATGACC [CACACA_site246]	10.3
ATTATGCACAGACACACACACACACTACTAAAAAAT [CACACA_site7252]	10.7
ATAGGAGAAAAAGAATGTACGTATGATGTTGAAAAT [XGTACX_site7779]	9.96
AAAAAAAATAAAAATATATATATATATATATAAATA [GTGCAC_negctrl_site676]	9.68
AAGCATTTTTTTTAAAGCCTGTTCATCATCCTTACC [CACACA_negctrl_site129]	9.44
AAATAAATAAATAGAGTGCATATATATATATATTTT	9.75
CTTTTTATTTATCATACACACACAGAAAAAAAAAAA [CACACA_site7935]	10.1
ATATACAAAGGATTAACACACATATTATTATAGATA [CACACA_site6966]	9.87
TCTATTAATTAATATACACACATTATATATATATAT [CACACA_site8815]	9.99
AATATATATATATATATATTTTTGTTAGAATATGGA [CACACA_negctrl_site212]	9.53
AAATAACTTTTAAATACACACGTAAAATATATTGTG [CACACA_site9085]	9.73
ACCGTGGGAGGACACACACACACACGCACATATATA [CACACA_site6289]	11.1
TACATTATAAATATTACACACTTTATAAAATAATAA [CACACA_site6096]	9.58

Sequence	gcPBM binding intensity (ln)
TCCTTTTTTTTTTATGCACACACAATTATACATTCC [CACACA_site9287]	10.3
TTAACCACTAAAAGTACACACATATATACATATATA [CACACA_site3912]	9.81
ATAATATTTTTATGTACACACCTTAATCCTTAAAAG [CACACA_site5881]	9.66
ATATAAGTACGGCATGCATGCACATTTTTTTATTCC [TGCATGCA_site101]	10
TTATAAATTCAATGTACTACACAAAATGAATTTAAT [XGTACX_site6683]	9.51
TACAGACATAGACACACACACACGCATAAAAAAAAA [CACACA_site6820]	11.4
TTCCTATAAAAAAACACACACATATAAATATAAATA [CACACA_site7154]	10.4
AAAAAAAAAAAAAACACACACACACGCAAATACATA [CACACA_site6474]	11.4
TCCTTAAATATAAAGGTGCTATGCAGACCTTATGTT [GTGCAC_site9472]	9.31
TGGCTTATTCAGAAATGTACACATATAAATATATAT [XGTACX_site3765]	9.66
AAAATAATATATGTATGTACACAATTATTTATAAGT [XGTACX_site7267]	9.88
TTTCTTTTAATTATCCGTACACAAACAATAAAATAA [XGTACX_site7841]	9.26
TGAATAAATAAGATACGTACACACATATACAAAATA [XGTACX_site7758]	10.1
TGTGCTCGCTATTACACACTCATTGGGATAAAATTG [CACACA_site2029]	9.6
TACATAAACATTTATACACACATTATATATACATAT [CACACA_site8028]	10.1
AATGTATAAAAGTTTTGTACATATTCTCACACATAT [XGTACX_site965]	9.89
ATATACCATATGCATGGTACACATTTACAACAAAAA [XGTACX_site3142]	9.57
TAGTTGTGAGTTACATGTACATGTATTTATTTTTTA [XGTACX_site7088]	10
GATAACAATATGTGTACACATTTATATCTCCACATA [CACACA_site5442]	9.84
